From the supplement of paper PMC8183993 come the findings set out here.

Where a name gives a salt, the structure may show the parent alone. ± gives the standard deviation of the averaged measurements. In all, about 3,200 compounds were measured (“nuclei count (viability) relative to DMSO”: median about 99, lowest 2% from about 16 on). Some of the results follow.

The assay relates to U2OS. As to the kind of experiment: nuclei count (viability) relative to DMSO (% of DMSO); higher = more viable cells. Conditions: 10 µM; 24 h. On the procedure: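 Primary image-based screen in U2OS cells: compounds at 10 uM for 24 h, then a 1 h o-propargyl-puromycin (OPP) pulse, click labelling, and high-throughput microscopy. Mean cytoplasmic OPP intensity and nuclei count were normalised to DMSO wells within each plate (DMSO = 100) and averaged over triplicate plates.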
In the case of `COc1cc(COc2cc(N)c(Cl)cc2C(=O)CCC2CCN(CCNS(C)(=O)=O)CC2)cc(OC)c1`, the nuclei count turned out to be 104.

For `CC(C)(C)[N+]([O-])=Cc1ccc(S(=O)(=O)O)cc1S(=O)(=O)O`, the nuclei count stood at 108.

`C[C@H](CCC(=O)NCCS(=O)(=O)O)[C@H]1CC[C@H]2[C@@H]3CC[C@@H]4C[C@H](O)CC[C@]4(C)[C@H]3C[C@H](O)[C@]12C` [Taurodeoxycholic acid] showed a nuclei count of 98.8.

On to `COC(=O)[C@@H]1CC2=CC(=O)CC[C@]2(C)[C@@]23O[C@@H]2C[C@@]2(C)[C@@H](CC[C@@]24CCC(=O)O4)[C@H]13` [Eplerenone], for which the nuclei count worked out at 104 ± 3.6.

In the case of `CC(C)OC(=O)C1=CN(C(=O)c2ccc(F)c(F)c2)CC(C)(C)c2c1[nH]c1ccccc21`, the nuclei count was 107.

With `CN1CCN(C(c2ccccc2)c2ccccc2)CC1` [Cyclizine hydrochloride], the nuclei count turned out to be 108.

In the case of `Cc1ccc(F)c(NC(=O)Nc2ccc(-c3cccc4[nH]nc(N)c34)cc2)c1` [Linifanib (ABT-869)], the nuclei count is 79.3.

`C[C@]12CC[C@@H]3c4ccc(OC(=O)c5ccccc5)cc4CC[C@H]3[C@@H]1CC[C@@H]2O` [Estradiol Benzoate]: the nuclei count turned out to be 98.4.

With `CCS(=O)(=O)N1CCC[C@@H]2CN3CCc4cc(OC)ccc4[C@@H]3C[C@@H]21`, the nuclei count stood at 101.

`CN(c1nccc(=O)[nH]1)C1CCN(c2nc3ccccc3n2Cc2ccc(F)cc2)CC1` [Mizolastine] had a nuclei count of 104.

As to `O=C(O)c1ccccc1C(=O)Nc1ccc(S(=O)(=O)Nc2nccs2)cc1` [Phthalylsulfathiazole], the nuclei count was determined as 118.

In the case of `CC[C@H](CO)Nc1nc(NCc2ccccc2)c2ncn(C(C)C)c2n1` [Roscovitine (Seliciclib, CYC202)], the nuclei count came out at 67.6.

For `Cc1ccc(NC(=O)c2cccc(C(C)(C)C#N)c2)cc1Nc1ccc2ncn(C)c(=O)c2c1`, the nuclei count is 89.2 ± 3.6.

In turn, `CC(CCCCC(=O)Nc1ccc(C(F)(F)F)cc1)NCCc1cnc[nH]1` (stereo not drawn) [HTMT dimaleate] gave a nuclei count of 99.4.

`OCCN(CCO)c1nc(N2CCCCC2)c2nc(N(CCO)CCO)nc(N3CCCCC3)c2n1` [Dipyridamole]: the nuclei count worked out at 98.26 ± 0.46.

Consider `N#Cc1cc2nc(O)c(O)nc2cc1[N+](=O)[O-]` [CNQX disodium salt], for which the nuclei count amounted to 90.9.

`COC(=O)C1=C(C#N)NC(C)=C(C(=O)OC(C)C)C1c1cccc([N+](=O)[O-])c1` (stereo not drawn) [Nilvadipine]: the nuclei count stood at 100.

The compound `COC(=O)[C@H](NC(=O)c1cc(-c2ccccc2)nc2ccccc12)c1ccccc1` gave a nuclei count of 94.5.

`CC1CC(OC(=O)c2ccccc2O)CC(C)(C)C1` (stereo not drawn) [Homosalate] displayed a nuclei count of 102.

In the case of `CNc1nc(Nc2cn(C(C)(C)C#N)nc2C)ncc1C(F)(F)F`, the nuclei count was 101.

Compound `C[C@@H](CN1CCC(Cc2ccccc2)CC1)[C@@H](O)c1ccc(O)cc1` [Ro 25-6981 maleate] returned a nuclei count of 102.

Turning to `COCCCN1CCC(NC(=O)c2cc(Cl)c(N)c3c2OCC3)CC1` [Prucalopride], the nuclei count worked out at 103.

In turn, `Nc1nc(-c2ccc(Cl)c(Cl)c2)c(-c2ccncc2)s1` [CGH 2466 dihydrochloride] registered a nuclei count of 94.1.

`NC[C@@H]1O[C@@H](O[C@H]2[C@H](O)[C@@H](O[C@H]3O[C@H](CO)[C@@H](O)[C@H](N)[C@H]3O)[C@H](N)C[C@@H]2N)[C@@H](O)[C@H](O)[C@H]1O` [Kanamycin A sulfate] yielded a nuclei count of 98.9.

As for `CCCCC/C=C/C=C1/C(=O)C=C[C@@H]1C/C=C\CCCC(=O)O` [15-Deoxy-D12,14-prostaglandin J2], the nuclei count was found to be 85.6.

With `N[C@@H](CS(=O)O)C(=O)O` [L-Cysteinesulfinic acid], the nuclei count is 102.

As for `O=C(Nc1ccncc1)c1cc([N+](=O)[O-])ccc1Cl`, the nuclei count came out at 85.4.

`O=C(CCCN1CCN(c2ccccn2)CC1)c1ccc(F)cc1` [Azaperone]: the nuclei count is 85.2.

On to `CCCCCCNC(=O)Nc1ccc(S(=O)(=O)Nc2ccc(CCNC[C@H](O)COc3ccc(O)cc3)cc2)cc1`, for which the nuclei count is 99.9.

In turn, `C[C@H](CCC(=O)O)[C@H]1CC[C@H]2[C@@H]3[C@@H](O)C[C@@H]4C[C@H](O)CC[C@]4(C)[C@H]3CC[C@]12C` [Urosiol] gave a nuclei count of 110.

In turn, `C[C@H](CCC(=O)O)[C@H]1CC[C@H]2[C@@H]3[C@@H](O)C[C@@H]4C[C@H](O)CC[C@]4(C)[C@H]3CC[C@]12C` [Ursodiol (Actigal Urso)] had a nuclei count of 93.1.

On to `C#C[C@]1(O)CC[C@H]2[C@@H]3CCC4=CCCC[C@@H]4[C@H]3CC[C@@]21C` [Lynestrenol], for which the nuclei count amounted to 105.

The compound `Cc1ccc(=O)n(-c2ccccc2)c1` [Pirfenidone] gave a nuclei count of 106.

In turn, `CN1CCC(=C2c3ccccc3Sc3ccccc32)CC1` [Pimethixene maleate] yielded a nuclei count of 114.

As for `N[C@@H](Cc1cc(I)c(Oc2ccc(O)c(I)c2)c(I)c1)C(=O)O` [Liothyronine], the nuclei count was 97.

The compound `Cc1cc(CN2CCN(c3c(Br)cnc4nc(-c5ccc(N6CCN(C)CC6)cc5)[nH]c34)CC2)no1` came in with a nuclei count of 46.25 ± 0.29.

With `COc1ccc(C2CC(=O)c3c(O)cc(OC4OC(COC5OC(C)C(O)C(O)C5O)C(O)C(O)C4O)cc3O2)cc1OC` (stereo not drawn) [Methyl-Hesperidin], the nuclei count was 87.7.

Take `CCC(=O)NC1Cc2ccccc2C(c2ccccc2)C1` (stereo not drawn): the nuclei count came out at 98.7.

Take `Cl/C(=C\n1cncn1)c1ccc(Cl)cc1Cl` [Loreclezole hydrochloride]: the nuclei count is 92.

Take `CN(C)C(=O)[C@H](O)[C@H](Cc1ccccc1)NC(=O)c1cc2cc(Cl)ccc2[nH]1`: the nuclei count was determined as 115.

`CC1(C(=O)O)NCCc2cc(O)c(O)cc21` (stereo not drawn) [Salsolinol-1-carboxylic acid] registered a nuclei count of 103.

Take `CC(C)(C)c1ccc(S(=O)(=O)/C=C/C#N)cc1`: the nuclei count is 43.7.

The compound `CN1CCCN=C1/C=C/c1cccc(O)c1` [Oxantel pamoate] had a nuclei count of 103.

As to `CCCCC[C@H](O)/C=C/[C@@H]1[C@H]2C/C(=C/CCCC(=O)O)C[C@H]2C[C@H]1O` [Carbacyclin], the nuclei count was determined as 97.8.

The compound `CC(N)CCCC(C)(C)O` (stereo not drawn) [Heptaminol hydrochloride] had a nuclei count of 104.

With `CCN1C[C@H](C)n2c(c(O)c3c(=O)n(Cc4ccc(F)c(Cl)c4)nc(C(=O)NC)c32)C1=O`, the nuclei count was determined as 108.

Consider `O=C(O)c1cc(=O)c2c(Cl)cc(Cl)cc2[nH]1` [5,7-Dichlorokynurenic acid], for which the nuclei count came out at 97.4.

In the case of `Clc1ccccc1CNCC1CCC(CNCc2ccccc2Cl)CC1` (stereo not drawn), the nuclei count was determined as 105.
